Test results from article PMC2970546.
No constants are given. Whether binding was seen depends on the method and setting. Some results given as binding are weak or reduced against the parent protein; the word gives no strength.

The chains behind the UniProt entries cited, without tags or fusion partners. Where a name states a change or a piece, a line headed by the entry shows the natural chain unless it says otherwise. A line that says so, or that is headed by a name, gives the form on record, which may keep a tag or linker.
human septin 3 (Q9UH03, form named): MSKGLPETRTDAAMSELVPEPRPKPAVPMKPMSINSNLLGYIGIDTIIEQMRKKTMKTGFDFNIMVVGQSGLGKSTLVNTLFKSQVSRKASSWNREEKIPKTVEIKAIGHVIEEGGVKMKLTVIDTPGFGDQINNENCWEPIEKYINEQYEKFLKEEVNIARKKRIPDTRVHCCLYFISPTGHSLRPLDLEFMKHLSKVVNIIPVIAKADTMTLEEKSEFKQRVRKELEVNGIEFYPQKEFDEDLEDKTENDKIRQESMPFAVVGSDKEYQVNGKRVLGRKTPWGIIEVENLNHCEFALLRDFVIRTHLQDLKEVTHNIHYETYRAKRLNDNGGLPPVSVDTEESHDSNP

T1: human septin 9 N-terminal region (amino acid residues 1-269) (human) (UniProt Q9UHD8)
T1 sequence: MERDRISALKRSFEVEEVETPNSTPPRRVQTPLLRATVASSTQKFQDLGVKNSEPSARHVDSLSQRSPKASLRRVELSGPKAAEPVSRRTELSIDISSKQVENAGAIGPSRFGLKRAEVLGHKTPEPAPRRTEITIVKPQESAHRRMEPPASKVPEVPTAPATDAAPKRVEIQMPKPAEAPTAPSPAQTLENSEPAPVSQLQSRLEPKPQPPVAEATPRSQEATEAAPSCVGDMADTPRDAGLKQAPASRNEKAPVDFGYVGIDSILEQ

T2: human septin 7 (human) (UniProt Q16181)
T2 sequence: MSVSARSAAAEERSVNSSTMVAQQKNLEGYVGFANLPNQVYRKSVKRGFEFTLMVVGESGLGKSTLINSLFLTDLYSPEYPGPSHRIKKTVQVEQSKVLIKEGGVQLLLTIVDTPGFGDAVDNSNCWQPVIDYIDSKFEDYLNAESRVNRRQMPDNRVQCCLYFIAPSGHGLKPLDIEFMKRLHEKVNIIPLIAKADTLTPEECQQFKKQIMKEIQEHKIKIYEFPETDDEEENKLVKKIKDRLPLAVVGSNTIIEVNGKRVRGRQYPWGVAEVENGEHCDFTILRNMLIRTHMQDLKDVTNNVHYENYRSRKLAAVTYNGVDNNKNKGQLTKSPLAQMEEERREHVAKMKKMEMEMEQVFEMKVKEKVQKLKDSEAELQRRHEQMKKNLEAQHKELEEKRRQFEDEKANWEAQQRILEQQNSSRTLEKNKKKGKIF

T3: human septin 1 (human) (UniProt Q8WYJ6)
T3 sequence: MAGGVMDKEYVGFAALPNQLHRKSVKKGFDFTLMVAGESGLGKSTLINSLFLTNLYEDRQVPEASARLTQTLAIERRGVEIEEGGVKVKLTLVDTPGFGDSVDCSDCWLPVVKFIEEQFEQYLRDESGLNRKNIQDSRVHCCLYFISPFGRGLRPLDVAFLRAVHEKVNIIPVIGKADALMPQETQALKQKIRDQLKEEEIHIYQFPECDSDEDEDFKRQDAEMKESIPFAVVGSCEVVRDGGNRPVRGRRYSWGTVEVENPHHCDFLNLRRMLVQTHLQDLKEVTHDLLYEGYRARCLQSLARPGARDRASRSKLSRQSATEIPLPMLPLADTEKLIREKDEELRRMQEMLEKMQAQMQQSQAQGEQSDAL

T4: human septin 5 (human) (UniProt Q99719)
T4 sequence: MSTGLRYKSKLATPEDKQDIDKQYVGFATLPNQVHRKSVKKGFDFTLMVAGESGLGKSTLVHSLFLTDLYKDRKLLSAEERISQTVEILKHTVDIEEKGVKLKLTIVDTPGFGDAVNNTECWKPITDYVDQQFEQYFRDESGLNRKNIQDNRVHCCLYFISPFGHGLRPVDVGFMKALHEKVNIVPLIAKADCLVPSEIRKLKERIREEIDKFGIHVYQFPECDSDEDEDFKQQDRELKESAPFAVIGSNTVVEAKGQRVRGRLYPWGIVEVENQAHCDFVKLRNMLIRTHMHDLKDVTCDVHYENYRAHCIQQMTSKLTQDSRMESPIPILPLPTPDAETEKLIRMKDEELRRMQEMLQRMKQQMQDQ

T5: human septin 2 (human) (UniProt Q15019)
T5 sequence: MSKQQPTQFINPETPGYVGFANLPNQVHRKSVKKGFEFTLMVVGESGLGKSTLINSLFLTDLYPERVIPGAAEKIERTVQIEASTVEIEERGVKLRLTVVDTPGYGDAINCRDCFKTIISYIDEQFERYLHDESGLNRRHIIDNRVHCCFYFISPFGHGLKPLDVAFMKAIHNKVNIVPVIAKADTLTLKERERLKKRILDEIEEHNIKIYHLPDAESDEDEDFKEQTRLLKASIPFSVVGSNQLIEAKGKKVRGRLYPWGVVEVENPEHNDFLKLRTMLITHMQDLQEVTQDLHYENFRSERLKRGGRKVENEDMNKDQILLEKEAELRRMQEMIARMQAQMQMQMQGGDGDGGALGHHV

T6: human septin 9, transcript variant 3, protein isoform c, full length (human) (UniProt Q9UHD8)
T6 sequence: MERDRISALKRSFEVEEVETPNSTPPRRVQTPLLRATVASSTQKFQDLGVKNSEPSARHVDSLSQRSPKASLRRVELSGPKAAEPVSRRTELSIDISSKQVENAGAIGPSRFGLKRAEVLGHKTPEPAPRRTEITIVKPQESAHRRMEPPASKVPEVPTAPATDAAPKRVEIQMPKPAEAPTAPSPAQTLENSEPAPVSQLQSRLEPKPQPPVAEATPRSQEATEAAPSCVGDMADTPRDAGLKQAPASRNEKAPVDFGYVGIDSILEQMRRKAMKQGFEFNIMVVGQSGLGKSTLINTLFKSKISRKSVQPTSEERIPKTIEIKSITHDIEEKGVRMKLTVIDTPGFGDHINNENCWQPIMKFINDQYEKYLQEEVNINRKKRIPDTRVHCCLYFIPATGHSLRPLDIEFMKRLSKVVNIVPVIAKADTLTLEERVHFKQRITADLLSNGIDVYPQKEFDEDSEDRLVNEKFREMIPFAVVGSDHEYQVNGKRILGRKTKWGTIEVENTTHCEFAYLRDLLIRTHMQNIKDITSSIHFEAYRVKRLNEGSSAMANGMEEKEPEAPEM

T7: human septin 8 (human) (UniProt Q92599)
T7 sequence: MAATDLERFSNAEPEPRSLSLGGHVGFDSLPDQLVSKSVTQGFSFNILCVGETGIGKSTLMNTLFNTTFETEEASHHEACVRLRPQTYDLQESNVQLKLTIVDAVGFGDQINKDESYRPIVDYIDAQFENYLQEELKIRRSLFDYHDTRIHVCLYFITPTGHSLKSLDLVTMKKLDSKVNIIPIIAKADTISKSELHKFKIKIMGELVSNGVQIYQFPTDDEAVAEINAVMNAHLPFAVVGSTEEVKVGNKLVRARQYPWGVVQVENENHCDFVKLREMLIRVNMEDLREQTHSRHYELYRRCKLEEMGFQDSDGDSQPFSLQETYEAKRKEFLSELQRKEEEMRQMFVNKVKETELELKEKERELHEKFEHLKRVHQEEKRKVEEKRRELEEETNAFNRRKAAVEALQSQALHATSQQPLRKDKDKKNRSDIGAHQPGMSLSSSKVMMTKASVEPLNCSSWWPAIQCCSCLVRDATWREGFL

T8: human septin 10 (human) (UniProt Q9P0V9)
T8 sequence: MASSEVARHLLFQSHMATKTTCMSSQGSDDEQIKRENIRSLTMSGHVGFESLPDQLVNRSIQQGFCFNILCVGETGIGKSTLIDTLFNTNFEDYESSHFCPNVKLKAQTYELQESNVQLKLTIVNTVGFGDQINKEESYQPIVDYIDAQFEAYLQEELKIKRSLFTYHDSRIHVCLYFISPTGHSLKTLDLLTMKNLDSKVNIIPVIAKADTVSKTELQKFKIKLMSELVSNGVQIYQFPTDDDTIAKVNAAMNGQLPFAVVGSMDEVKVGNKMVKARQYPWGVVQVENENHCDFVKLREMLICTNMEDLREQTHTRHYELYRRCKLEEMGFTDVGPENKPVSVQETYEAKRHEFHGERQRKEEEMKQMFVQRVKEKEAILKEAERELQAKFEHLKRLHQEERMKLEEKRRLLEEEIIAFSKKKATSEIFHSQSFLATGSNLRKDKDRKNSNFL


How the values were obtained:
Experiment in all cases: two-hybrid; LexA-septin bait (modified pBTM116) in yeast L40 screened against human fetal brain and human leukocyte cDNA libraries (pACT2); minimal medium without Trp, Leu, His, with 5 mM 3-AT; every clone confirmed one-to-one with its bait by beta-galactosidase filter assay, empty bait vector as control
[1] = molecular target: T1, human septin 9 N-terminal region (amino acid residues 1-269) (human)
human septin 7 (human) = molecular target: T2, human septin 7 (human)
human septin 1 (human) = molecular target: T3, human septin 1 (human)
human septin 5 (human) = molecular target: T4, human septin 5 (human)
human septin 2 (human) = molecular target: T5, human septin 2 (human)
[2] = molecular target: T6, human septin 9, transcript variant 3, protein isoform c, full length (human)
human septin 8 (human) = molecular target: T7, human septin 8 (human)
human septin 3 (human) = human septin 3 (human) (UniProt Q9UH03)
human septin 10 (human) = molecular target: T8, human septin 10 (human)

Row | Binder | binding [1] | binding (human septin 7 (human)) | binding (human septin 1 (human)) | binding (human septin 5 (human)) | binding (human septin 2 (human)) | binding [2] | binding (human septin 8 (human)) | binding (human septin 3 (human)) | binding (human septin 10 (human))
1 | human septin 6 (protein, UniProt Q14141-1 1-434) MAATDIARQVGEGCRTVPLAGHVGFDSLPDQLVNKSVSQGFCFNILCVGETGLGKSTLMDTLFNTKFEGEPATHTQPGVQLQSNTYDLQESNVRLKLTIVSTVGFGDQINKEDSYKPIVEFIDAQFEAYLQEELKIRRVLHTYHDSRIHVCLYFIAPTGHSLKSLDLVTMKKLDSKVNIIPIIAKADAISKSELTKFKIKITSELVSNGVQIYQFPTDDESVAEINGTMNAHLPFAVIGSTEELKIGNKMMRARQYPWGTVQVENEAHCDFVKLREMLIRVNMEDLREQTHTRHYELYRRCKLEEMGFKDTDPDSKPFSLQETYEAKRNEFLGELQKKEEEMRQMFVQRVKEKEAELKEAEKELHEKFDRLKKLHQDEKKKLEDKKKSLDDEVNAFKQRKTAAELLQSQGSQAGGSQTLKRDKEKKNNPWLCTE | no binding | binds | binds | binds | binds | binds | – | – | –
2 | human septin 9, transcript variant 3, protein isoform c, full length (protein, UniProt Q9UHD8-2 1-568) MERDRISALKRSFEVEEVETPNSTPPRRVQTPLLRATVASSTQKFQDLGVKNSEPSARHVDSLSQRSPKASLRRVELSGPKAAEPVSRRTELSIDISSKQVENAGAIGPSRFGLKRAEVLGHKTPEPAPRRTEITIVKPQESAHRRMEPPASKVPEVPTAPATDAAPKRVEIQMPKPAEAPTAPSPAQTLENSEPAPVSQLQSRLEPKPQPPVAEATPRSQEATEAAPSCVGDMADTPRDAGLKQAPASRNEKAPVDFGYVGIDSILEQMRRKAMKQGFEFNIMVVGQSGLGKSTLINTLFKSKISRKSVQPTSEERIPKTIEIKSITHDIEEKGVRMKLTVIDTPGFGDHINNENCWQPIMKFINDQYEKYLQEEVNINRKKRIPDTRVHCCLYFIPATGHSLRPLDIEFMKRLSKVVNIVPVIAKADTLTLEERVHFKQRITADLLSNGIDVYPQKEFDEDSEDRLVNEKFREMIPFAVVGSDHEYQVNGKRILGRKTKWGTIEVENTTHCEFAYLRDLLIRTHMQNIKDITSSIHFEAYRVKRLNEGSSAMANGMEEKEPEAPEM | – | binds | binds | – | – | – | binds | no binding | no binding
3 | human septin 7 (protein, UniProt Q16181-1 1-437) MSVSARSAAAEERSVNSSTMVAQQKNLEGYVGFANLPNQVYRKSVKRGFEFTLMVVGESGLGKSTLINSLFLTDLYSPEYPGPSHRIKKTVQVEQSKVLIKEGGVQLLLTIVDTPGFGDAVDNSNCWQPVIDYIDSKFEDYLNAESRVNRRQMPDNRVQCCLYFIAPSGHGLKPLDIEFMKRLHEKVNIIPLIAKADTLTPEECQQFKKQIMKEIQEHKIKIYEFPETDDEEENKLVKKIKDRLPLAVVGSNTIIEVNGKRVRGRQYPWGVAEVENGEHCDFTILRNMLIRTHMQDLKDVTNNVHYENYRSRKLAAVTYNGVDNNKNKGQLTKSPLAQMEEERREHVAKMKKMEMEMEQVFEMKVKEKVQKLKDSEAELQRRHEQMKKNLEAQHKELEEKRRQFEDEKANWEAQQRILEQQNSSRTLEKNKKKGKIF | no binding | – | – | no binding | – | binds | binds | – | –
